# Source: PubChem BioAssay AID686978 (National Center for Advancing Translational Sciences (NCATS), 2013)
# Out of some 420,000 compounds screened, about 64,000 (15%) were called active. This list was built around the results that the source calls inconclusive (neither active nor inactive); the mix of calls is not that of the screen. The call rests on the fitted dose curve; in most records, active means well fitted inhibition curve with a large enough effect; inconclusive means small, poorly fitted or top-dose-only effect; inactive means flat fitted curve, though single readings scatter. Potencies of inconclusive entries are left out as doubtful fits.
# Assay: qHTS for Inhibitors of human tyrosyl-DNA phosphodiesterase 1 (TDP1): qHTS in cells in absence of CPT; further: nearly all actives have a fitted effect of over 55% in size
# Details: DT40 Tdp1-/- hTDP1 cells, no CPT, ATP luminescence, 48 h; activity change, negative = growth inhibition: at 46.2 µM (top of the series) unless noted
# Outline: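 Chicken DT40 Tdp1-/- cells stably complemented with human TDP1 were seeded at 400 cells/well with DMSO in place of 20 nM camptothecin. After compound pinning, cells grew at least 48 hr at 37 °C; viability read by CellTiter-Glo luminescence.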
# On the % scale 0 is the no-effect control and ±100 the full control effect; potency means the concentration at half of the fitted maximal effect; tags describe the fitted curve by direction and shape.
SMILES,Potency,"activity change, negative = growth inhibition"
O=c1n(Cc2ccc([N+](=O)[O-])cc2)c2ccccc2c2nc(-c3ccccc3)nn12,"inconclusive [inhibitor, partial curve]",
COc1ccccc1S(=O)(=O)Cc1ccc(C(=O)NCCCN2CCN(c3ccc(F)cc3)CC2)o1,"inconclusive [inhibitor, single point]",
Cc1nc(Cc2nnc(SC(C)C(=O)Nc3ccccc3)o2)cs1 (centres undefined),,inactive: 17.8%
O=[N+]([O-])c1ccccc1S(=O)(=O)NCCSCc1ccco1,"inconclusive [inhibitor, single point]",
O=C(OCCN1CCOCC1)c1ccccc1,"inconclusive [inhibitor, partial curve]",
CC(OC(=O)C1=COCCO1)C(=O)Nc1ncc(Cl)cc1Cl (centres undefined),,inactive: -0.625%
O=C(Nc1nc(-c2ccc3c(c2)OCCO3)cs1)c1ccc(S(=O)(=O)N2CCCCC2)cc1,"inconclusive [inhibitor, partial curve]",
CCN(CC(=O)Nc1cccc(S(=O)(=O)N2CCCC2)c1)CC(=O)Nc1ccccc1OC,"inconclusive [inhibitor, single point]",
O=C(CN(CC1CCCO1)C(=O)CNS(=O)(=O)c1ccc(F)cc1)NCCc1ccccc1 (centres undefined),,inactive: -5.17%
Cc1ccc(Cn2cnc3nc4c(cc3c2=O)CCCC4)cc1,"inconclusive [inhibitor, single point]",
C/C(=N\NC(=O)C(c1ccccc1)c1ccccc1)c1ccc(O)cc1,"inconclusive [inhibitor, single point]",
Cc1cc(C)c(S(=O)(=O)N2CCN(C)CC2)c(C)c1,,inactive: -29.6%
O=c1c2ccccc2nnn1CSc1ccc2ccccc2n1,"inconclusive [inhibitor, single point]",
O=C(Nc1cccc2cccnc12)c1csc(COCCO)n1,active: 13 µM,
COc1ccc(CNC(=O)CN2CCN(c3ccccc3O)CC2)cc1OC,,inactive: 0.194%
COc1ccc(Oc2ncc3nc(-c4ccccc4)c(=O)n(C4CC4)c3n2)cc1,"inconclusive [inhibitor, single point]",
Cc1ccc(C(=O)N2CCc3cc(CNC(=O)c4ccccc4F)ccc32)cc1,active: 20.6 µM,
COc1cc(CNC(=O)c2cc(-c3cc(F)ccc3OC(C)C)n[nH]2)cc(OC)c1,"inconclusive [inhibitor, single point]",
Cn1c(=O)n(C)c2cc(CNCc3ccc(F)cc3)ccc21,,inactive: -23.7%
CSc1nsc(SCC(=O)Nc2ccc(Cl)c(C(=O)O)c2)n1,,inactive: 0.0677%
COCCN=C1Sc2nc3cc4c(cc3cc2CN1CC1CCCO1)OCO4 (centres undefined),,inactive: -14.1%
OC[C@@H]1[C@@H](c2ccc(Cl)cc2)C(c2ccccc2)=NN1c1ccccc1,active: 16.4 µM,
COCCNC(=O)C1(C)CCCN(C(=O)c2cc(OC)c(OC)c(OC)c2)C1 (centres undefined),,inactive: 17%
O=C(CS(=O)(=O)c1ccc(Cl)cc1)Nc1nc2ccc(Br)cc2s1,active: 23.1 µM,
CSc1nccc(-c2cc(Cl)c3c(c2)CC(CNC(=O)c2ccc(C)nc2)O3)n1 (centres undefined),,inactive: -3.93%

SMILES,Potency,"activity change, negative = growth inhibition"
Cc1ccccc1NC(=O)Cc1nc(COC(=O)/C=C/c2ccc(F)cc2)cs1,"inconclusive [inhibitor, single point]",
O=C(COC(=O)/C=C/c1cn(-c2ccccc2)nc1-c1cccnc1)Nc1ccc(Cl)cc1Cl,"inconclusive [inhibitor, partial curve]",
CN(C)C(CNC(=O)c1ccc2c(c1)S(=O)(=O)c1ccccc1C2=O)c1ccco1 (centres undefined),"inconclusive [inhibitor, single point]",
O=C(CN1CCN(Cc2ccccc2Cl)CC1)N/N=C/c1ccccn1,"inconclusive [inhibitor, single point]",
O=[N+]([O-])c1cc(/C=N/O)ccc1Sc1ccccc1,"inconclusive [inhibitor, single point]",
CCc1ccc(NC(=O)C2(c3cccs3)CCOCC2)cc1,,inactive: -29.6%
CN(c1ccc(OCC(=O)Nc2ccccc2C(=O)O)cc1)S(=O)(=O)c1ccc(Cl)cc1,,inactive: -27.8%
COc1ccc(C2CN=NC2C(=O)c2ccccc2)cc1 (centres undefined),"inconclusive [inhibitor, single point]",
O=C(CN1CCN(c2ccccn2)CC1)Nc1ccc(OCc2ccccc2)cc1,"inconclusive [inhibitor, single point]",
COC(=O)[C@H]1[C@@H](C)N(Cc2ccccc2)C(=O)N[C@H]1c1cccc(C(F)(F)F)c1,"inconclusive [inhibitor, single point]",
Fc1ccccc1/C=C1\CCCC2=C1Nc1nnnn1C2c1ccccc1F (centres undefined),,inactive: -8.24%
Cn1c(=O)c2c(ncn2CC(=O)Nc2ccc3c(c2)OCO3)n(C)c1=O,,inactive: -6.51%
CCC(C)/C(C)=N/NC(=O)c1cn(-c2ccccc2)nc1-c1ccccc1 (centres undefined),"inconclusive [inhibitor, partial curve]",
O=C(CNC(=S)N(Cc1ccccc1)Cc1ccccc1F)NCCc1ccc(Cl)cc1,"inconclusive [inhibitor, single point]",
Cc1ccc(C(=O)NNC(=S)NC(=O)c2ccccc2)cc1,active: 16.4 µM,
O=C(NC1CCS(=O)(=O)C1)/C(=C/c1ccco1)NC(=O)c1ccccc1 (centres undefined),,inactive: 1.8%
Cc1ccccc1OS(=O)(=O)c1cn(C)c(=O)n(C)c1=O,,inactive: -5.92%
Cc1ccc(/C=N\NC(=O)Cn2c(C)nc3ccccc32)o1,,inconclusive: -35.4% [inhibitor]
Fc1ccc(-c2nc3ccc(Cl)cn3c2Cc2ccccc2)cc1,"inconclusive [inhibitor, single point]",
CCCC/C=C/C(NC(=O)c1ccc(-c2ccccc2)cc1)c1ccccc1 (centres undefined),,inconclusive: -34.5% [inhibitor]
OCC1OC(n2nc3ccccc3n2)C(O)C(O)C1O (centres undefined),,inactive: -13%
OC1CCNC(=S)N1c1ccccc1 (centres undefined),,inactive: -15.8%
COc1ccccc1OCC(=O)Nc1ccncc1,"inconclusive [inhibitor, single point]",
COc1ccc(/C=N/NC(=O)c2sccc2C)c2ccccc12,"inconclusive [inhibitor, full curve]",
